# From the supplement of paper PMC8728848
# This is one part of the list.
# B1: CwpV (Clostridium difficile), B6EFG6 (protein)
# chain: MKIPKKIAAMLTVTMIAGSSTAGIASAQTVATNLTGQERYETAVKISQDGWKNADEVVIVNDSSIADALSATPFAKAKNAPILLTSKDKLNDKTKAEIQRLKAKKVYLIGGTSVLSTNIEKEIKDLKISFERISGAERYQTSLELAKKLDAISDVKKIAVVNGEKGLADAVSVGAPAAQNNMPVILADSKNGTAVADKFIKDAGITQSYVVGGESSISEAVKNKLPNSTRLGGTDRNDTNAKVIKEFYKKTDLKNAYVTKDGMNKQDQLIDALAVGVLGAKNQSPVVLVGKNLSASQKSLVNSKSFDKITKVGGNGNETAFNEMKSLQEVKTVEAKTISELKSAIDKATANDVINFKPTSEVKEAFTIQTDKAVTVNLNGTYTKTVTINMPNGDVNNYAKVDDVVIDDVKDGTFVNYGKITNLKVNDKNGAKIENNSKGEIGSLTVASGASQVKVTNGGKITTVTNNSKGTTIDNKGTISSVKGDNSPTISGNSPSSNSSGGSSSSGGSSGGSSGGSSSSKVGQIKFSATDKQIKMASGDKTVDPSDNTYILKLTNGTVKDGDVKANVKVAGLPSGLDYTAVGNRSANTITITVSGTTSQSIQNDLNNVSVLVKAGAVSGTGATDSIANTTFEIKKYVAAPAVGQLTFDATDKQIKMASGDKTVDPSDDTYVLTLTKGTAKDGDIKANVEVTGLPSGLDYTAEGDSSANTITIPVSGTASPAVQTDLDNVSVLVKAGAVSETTATDSAANATFEVKKYVAPAVGQLTFDATDKQIKMASGDKTVDPSDDTYVLTLTKGTAKDGDIKANVEVTGLPSGLDYTAEGDSSANTITITVSGTASQAVQTDLDNVSVLVKAGAVSETTATDSAANATFEVKKYVAPAIGQLTFDATDKQIKMASGDKTVDPSDDTYVLTLTKGTAKDGDIKANVEVTGLPSGLDYTAEGDSSANTITITVSGTASQAVQTDLDNVSVLVKAGAVSETTATDSAANATFEVKKHASDPISTIGKISSGLSSLFNILK
# Legend:
# Assay in all cases: glycan array binding signal (z-score within array); higher = stronger binding
# Settings in all cases: glycan notation: IUPAC condensed, linker removed
# [1] = biological target: Gal(b1-3)GlcNAc(b1-3)Gal(b1-4)[Fuc(a1-3)]GlcNAc(b1-6)[Gal(b1-3)GlcNAc(b1-3)]Gal(b1-4)Glc
# Summary of the method: (§1)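 The binding signal is a Z-score computed within each array. Data were drawn from 3228 arrays in the Consortium for Functional Glycomics database, restricted to those with a known protein sequence. Scores were averaged over arrays of the same protein sequence at different concentrations or buffers, and over linkers, and negative values can be taken as non-binding.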
# [2] = biological target: Gal(b1-3)GlcNAc(b1-3)GalNAc
# Summary of the method: as §1
# [3] = biological target: Gal(b1-3)GlcNAc(b1-6)Gal(b1-4)GlcNAc
# Summary of the method: as §1
# [4] = biological target: Gal(b1-3)[Fuc(a1-4)]GlcNAc
# Summary of the method: as §1
# [5] = biological target: Gal(b1-3)[Fuc(a1-4)]GlcNAc(b1-2)Man(a1-3)[Gal(b1-3)[Fuc(a1-4)]GlcNAc(b1-2)Man(a1-6)]Man(b1-4)GlcNAc(b1-4)GlcNAc
# Summary of the method: as §1
# [6] = biological target: Gal(b1-3)[Fuc(a1-4)]GlcNAc(b1-2)Man(a1-3)[Gal(b1-3)[Fuc(a1-4)]GlcNAc(b1-2)Man(a1-6)]Man(b1-4)GlcNAc(b1-4)[Fuc(a1-6)]GlcNAc
# Summary of the method: as §1
# [7] = biological target: Gal(b1-3)[Fuc(a1-4)]GlcNAc(b1-3)Gal(b1-3)[Fuc(a1-4)]GlcNAc
# Summary of the method: as §1
# [8] = biological target: Gal(b1-3)[Fuc(a1-4)]GlcNAc(b1-3)Gal(b1-4)GlcNAc
# Summary of the method: as §1
# [9] = biological target: Gal(b1-3)[Fuc(a1-4)]GlcNAc(b1-3)Gal(b1-4)[Fuc(a1-3)]GlcNAc
# Summary of the method: as §1
# [10] = biological target: Gal(b1-3)[GlcNAc(b1-6)]GalNAc
# Summary of the method: as §1
# [11] = biological target: Gal(b1-3)[Neu5Ac(a2-6)]GalNAc
# Summary of the method: as §1
# [12] = biological target: Gal(b1-3)[Neu5Ac(a2-6)]GlcNAc(b1-6)Gal(b1-4)Glc
# Summary of the method: as §1
# [13] = biological target: Gal(b1-3)[Neu5Ac(b2-6)]GalNAc
# Summary of the method: as §1
# [14] = biological target: Gal(b1-4)Gal
# Summary of the method: as §1
# [15] = biological target: Gal(b1-4)GalNAc(a1-3)[Fuc(a1-2)]Gal(b1-4)GlcNAc
# Summary of the method: as §1
# [16] = biological target: Gal(b1-4)GalNAc(b1-3)[Fuc(a1-2)]Gal(b1-4)GlcNAc
# Summary of the method: as §1
# [17] = biological target: Gal(b1-4)Glc
# Summary of the method: as §1
# [18] = biological target: Gal(b1-4)Glc6S
# Summary of the method: as §1
# [19] = biological target: Gal(b1-4)GlcNAc
# Summary of the method: as §1
# [20] = biological target: Gal(b1-4)GlcNAc(a1-6)Gal(b1-4)GlcNAc
# Summary of the method: as §1
# [21] = biological target: Gal(b1-4)GlcNAc(b1-2)Man(a1-3)Man(b1-4)GlcNAc(b1-4)GlcNAc
# Summary of the method: as §1
# [22] = biological target: Gal(b1-4)GlcNAc(b1-2)Man(a1-3)[Gal(b1-4)GlcNAc(b1-2)Man(a1-6)]Man(b1-4)GlcNAc(b1-4)GlcNAc
# Summary of the method: as §1
# [23] = biological target: Gal(b1-4)GlcNAc(b1-2)Man(a1-3)[Gal(b1-4)GlcNAc(b1-2)Man(a1-6)]Man(b1-4)GlcNAc(b1-4)[Fuc(a1-6)]GlcNAc
# Summary of the method: as §1
# [24] = biological target: Gal(b1-4)GlcNAc(b1-2)Man(a1-3)[Gal(b1-4)GlcNAc(b1-2)][GlcNAc(b1-4)]Man(b1-4)GlcNAc(b1-4)GlcNAc
# Summary of the method: as §1
# [25] = biological target: Gal(b1-4)GlcNAc(b1-2)Man(a1-3)[GlcNAc(b1-2)Man(a1-6)]Man(b1-4)GlcNAc(b1-4)GlcNAc
# Summary of the method: as §1
# [26] = biological target: Gal(b1-4)GlcNAc(b1-2)Man(a1-3)[Man(a1-6)]Man(b1-4)GlcNAc(b1-4)GlcNAc
# Summary of the method: as §1
# [27] = biological target: Gal(b1-4)GlcNAc(b1-2)Man(a1-6)Man(b1-4)GlcNAc(b1-4)GlcNAc
# Summary of the method: as §1
# [28] = biological target: Gal(b1-4)GlcNAc(b1-2)Man(a1-6)[GlcNAc(b1-2)Man(a1-3)]Man(b1-4)GlcNAc(b1-4)GlcNAc
# Summary of the method: as §1
# [29] = biological target: Gal(b1-4)GlcNAc(b1-2)Man(a1-6)[Man(a1-3)]Man(b1-4)GlcNAc(b1-4)GlcNAc
# Summary of the method: as §1
# [30] = biological target: Gal(b1-4)GlcNAc(b1-2)[Gal(b1-4)GlcNAc(b1-4)]Man(a1-3)[Gal(b1-4)GlcNAc(b1-2)Man(a1-6)]Man(b1-4)GlcNAc(b1-4)GlcNAc
# Summary of the method: as §1
binder,measurement,setting,value
B1,glycan array binding signal (z-score),[1],-0.342
same,glycan array binding signal (z-score),[2],-0.155
same,glycan array binding signal (z-score),[3],-0.262
same,glycan array binding signal (z-score),[4],-0.256
same,glycan array binding signal (z-score),[5],1.14
same,glycan array binding signal (z-score),[6],0.761
same,glycan array binding signal (z-score),[7],0.444
same,glycan array binding signal (z-score),[8],-0.269
same,glycan array binding signal (z-score),[9],0.08
same,glycan array binding signal (z-score),[10],-0.281
same,glycan array binding signal (z-score),[11],-0.248
same,glycan array binding signal (z-score),[12],-0.259
same,glycan array binding signal (z-score),[13],-0.275
same,glycan array binding signal (z-score),[14],-0.225
same,glycan array binding signal (z-score),[15],-0.229
same,glycan array binding signal (z-score),[16],-0.256
same,glycan array binding signal (z-score),[17],-0.18
same,glycan array binding signal (z-score),[18],-0.301
same,glycan array binding signal (z-score),[19],-0.248
same,glycan array binding signal (z-score),[20],-0.327
same,glycan array binding signal (z-score),[21],-0.222
same,glycan array binding signal (z-score),[22],-0.318
same,glycan array binding signal (z-score),[23],0.025
same,glycan array binding signal (z-score),[24],-0.271
same,glycan array binding signal (z-score),[25],-0.335
same,glycan array binding signal (z-score),[26],-0.26
same,glycan array binding signal (z-score),[27],-0.263
same,glycan array binding signal (z-score),[28],-0.302
same,glycan array binding signal (z-score),[29],-0.331
same,glycan array binding signal (z-score),[30],-0.284
